# In all, about 310,000 compounds went through this assay and about 14,000 (4.5%) showed an effect of 50% or more. The effect is printed as a negative number. This is one part of the list.
# Molecular target: human ether-à-go-go-related gene (hERG) potassium channel (human, UniProt Q12809)
# Experiment: primary screen, population patch clamp on CHO cells stably expressing hERG
# 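Note: peak tail current of the secondary pulse compared with the same well before compound.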
# Chain of human ether-à-go-go-related gene (hERG) potassium channel (Q12809 whole entry, looked up): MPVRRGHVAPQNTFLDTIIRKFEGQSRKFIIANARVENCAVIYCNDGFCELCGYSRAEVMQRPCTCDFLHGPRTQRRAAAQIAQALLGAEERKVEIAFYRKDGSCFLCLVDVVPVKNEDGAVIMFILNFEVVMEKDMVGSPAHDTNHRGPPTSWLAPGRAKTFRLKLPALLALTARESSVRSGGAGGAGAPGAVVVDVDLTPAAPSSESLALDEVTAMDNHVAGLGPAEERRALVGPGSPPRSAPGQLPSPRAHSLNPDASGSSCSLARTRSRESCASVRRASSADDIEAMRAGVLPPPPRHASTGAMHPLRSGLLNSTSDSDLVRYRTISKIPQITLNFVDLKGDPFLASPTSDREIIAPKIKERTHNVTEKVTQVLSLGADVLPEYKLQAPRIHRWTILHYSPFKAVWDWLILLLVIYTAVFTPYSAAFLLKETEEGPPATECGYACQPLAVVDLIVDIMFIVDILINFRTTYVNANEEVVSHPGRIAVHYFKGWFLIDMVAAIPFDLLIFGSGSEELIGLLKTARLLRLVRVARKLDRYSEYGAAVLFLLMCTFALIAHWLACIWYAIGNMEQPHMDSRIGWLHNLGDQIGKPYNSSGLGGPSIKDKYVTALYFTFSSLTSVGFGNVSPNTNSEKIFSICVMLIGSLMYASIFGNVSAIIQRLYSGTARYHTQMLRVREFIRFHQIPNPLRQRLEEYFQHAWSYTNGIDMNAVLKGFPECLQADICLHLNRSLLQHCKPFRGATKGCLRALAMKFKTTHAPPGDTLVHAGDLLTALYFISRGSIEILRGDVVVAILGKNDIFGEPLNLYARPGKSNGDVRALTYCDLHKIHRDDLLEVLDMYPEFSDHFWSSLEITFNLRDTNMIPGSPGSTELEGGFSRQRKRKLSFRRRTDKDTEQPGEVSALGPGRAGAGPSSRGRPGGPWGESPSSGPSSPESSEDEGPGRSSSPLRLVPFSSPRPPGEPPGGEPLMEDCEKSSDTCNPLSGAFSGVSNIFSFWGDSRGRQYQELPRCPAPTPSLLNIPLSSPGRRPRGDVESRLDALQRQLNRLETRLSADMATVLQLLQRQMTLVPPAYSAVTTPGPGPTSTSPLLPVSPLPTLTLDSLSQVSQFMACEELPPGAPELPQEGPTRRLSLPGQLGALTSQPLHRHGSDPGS
row,SMILES,"hERG current change (%, negative = inhibition) at 10uM"
1,COc1cc(C2=NOC(C(=O)Nc3ccc(C(C)=O)cc3)C2)cc(OC)c1OC (centres unmarked),12.6%
2,COc1ccccc1NC(=O)c1ccc(NC(=O)CN(C)Cc2ccccc2F)cc1,-9.01%
3,CC(=O)OC1(c2ccccc2)CCN(C2CCCCC2)CC1C.Cl (centres unmarked),-18.6%
4,CC(=O)c1ccc(C(=O)N2CCCC(C(=O)c3cc(F)ccc3F)C2)s1 (centres unmarked),2.88%
5,O=C(Nc1cccc(/C=C/c2nc3ccccc3c(=O)[nH]2)c1)c1ccccc1Cl,-5.58%
6,O=C(Nc1ccc(S(=O)(=O)N2CCCCC2)cc1)c1ccc(CN2CCc3ccccc3C2)cc1,8.76%
7,COc1ccc(C(=O)N2CCCC(Nc3ccc(F)c(F)c3)C2)c(OC)n1 (centres unmarked),4.09%
8,CCOC(=O)C1C(=O)Nc2nc3ccccc3n2C1C(C)C (centres unmarked),-5.74%
9,COc1ccccc1N=c1oc2cc(O)ccc2cc1C(=O)NCC1CCCO1 (centres unmarked),-1.66%
10,O=C(NCc1ccccc1)C1CCN(S(=O)(=O)N2CCOCC2)CC1,-10.8%
11,CCOC(=O)c1ccc(N2C(=O)CC(N3CCC(O)(c4ccc(Cl)cc4)CC3)C2=O)cc1 (centres unmarked),4.12%
12,N#Cc1cc2c(nc1SCc1cccnc1)CCCCC2,-14.1%
13,Nn1c(SCC(=O)Nc2ccc3c(c2)OCO3)nnc1-c1ccccc1,-6.98%
14,Cn1c(NCCCN2CCOCC2)nc2c1c(=O)n(Cc1ccc(Cl)cc1)c(=O)n2C,-21.4%
15,CCC(=O)NC(=S)NNC(=O)c1ccc(O)cc1,16.7%
16,CC(Sc1nc2ccccc2c(=O)n1CC1CCCO1)C(=O)NC(C)c1ccccc1 (centres unmarked),-5.01%
17,Nc1nonc1-n1nnc(C(=O)N/N=C/C=C/c2ccccc2)c1CSC1=NCCS1,-14.1%
18,CCn1cnc2c(cnn2-c2ccccc2)c1=O,11.8%
19,O=C(Nc1ccncc1)c1cc(-c2cccc(Br)c2)nc2ccccc12,9.58%
20,O=C(CS(=O)(=O)c1ccccc1)Nc1nnc(-c2cccs2)o1,8.9%
21,O=C(O)COc1ccc(/C=C/c2ccc3cccc([N+](=O)[O-])c3n2)cc1,9.35%
22,COc1ccc(C2=NOC(C)(c3nnc(-c4ccc(Cl)cc4)o3)C2)cc1 (centres unmarked),-27.1%

row,SMILES,"hERG current change (%, negative = inhibition) at 10uM"
1,O=C(NCc1ccccn1)Nc1ccccc1F,13.5%
2,CC(CCc1ccccc1)N1CCN(C)CC1 (centres unmarked),-20.4%
3,Cc1ccccc1CC1(CO)CCCN(C(=O)Cc2c(F)ccc(F)c2F)C1 (centres unmarked),-0.736%
4,CCOC(=O)CNC(=O)CSc1nnc(NC(=O)c2ccccc2Cl)s1,21.4%
5,O=S(=O)(N1CCCCCC1)N1CCN(S(=O)(=O)N2CCCCC2)CC1,-2.48%
6,CCOC(=O)N1CCN(C(=O)C2CCN(S(=O)(=O)c3ccc(C)cc3)CC2)CC1,-25.8%
7,CCCCCCC(=O)Nc1nnc(CC)s1,-2.86%
8,O=C1CCCc2ccccc2N1Cc1ccc(F)cc1,15.4%
9,CCC(C)CN1CCC(CO)(Cc2ccccc2Cl)CC1 (centres unmarked),-30%
10,CC(C)Nc1nc(NC(C)(C)C)nc(Oc2ccc(=O)n(C)n2)n1,-15.3%
11,COc1cc(/C=N/NS(=O)(=O)c2ccc(C)cc2)ccc1OCc1ccc(C(=O)O)cc1,0.853%
12,CCOC(=O)C(=O)Nc1ccc(F)cc1,13.3%
13,CCCn1c(SCC(=O)Nc2c(CC)cccc2CC)nnc1C(C)C,13.1%
14,Cc1cccc(C)c1N(CC(=O)N/N=C/c1cc(Br)c(C)o1)S(C)(=O)=O,-2.24%
15,CCOC(=O)C1=C(C)N(C)C(C)=C(C(=O)OCC)C1c1ccccc1,9.76%
16,CCC(CC)c1nc(C#N)c(NC(C)c2ccccc2)o1 (centres unmarked),-3.77%
17,COc1ccc(NC(=O)CSc2nccn2Cc2ccccc2)c(OC)c1,-6.64%
18,CC1CCCC(C)N1S(=O)(=O)c1ccc(S(=O)(=O)NCCc2ccncc2)cc1 (centres unmarked),-7.78%
19,Cc1ccn(CC(=O)N2CCCC(N3CCN(Cc4ccc5c(c4)OCO5)CC3)C2)n1 (centres unmarked),-5.29%
20,O=C(Nc1ccc(Cl)cc1)Nc1nnc(SCc2ccc(Cl)cc2)s1,6.78%
21,O=Cc1ccc(-c2ccc(F)cc2)o1,0.135%
22,Cc1cccc(-n2c(C)nc3cc(C(=O)NCC4CCCO4)ccc32)c1 (centres unmarked),-4.72%

row,SMILES,"hERG current change (%, negative = inhibition) at 10uM"
1,COCC(C)Nc1nc(C)c(C(C)=O)s1 (centres unmarked),13.8%
2,Cc1cc(C)n(C(=O)CN2C(=O)CCC2=O)n1,20.5%
3,O=C(O)c1ccccc1C(=O)N1CCN(c2ccccc2)CC1,7.06%
4,NC(=NC(=O)c1ccccc1)N1CCN(C(c2ccccc2)c2ccccc2)CC1,9.74%
5,Cc1ccc(SCCC(=O)OC(C(=O)NC(N)=O)C(C)C)cc1 (centres unmarked),2.66%
6,COc1cc(C(=O)N2CCN(C(=O)C3COc4ccccc4O3)CC2)cc(OC)c1OC (centres unmarked),-27.9%
7,CC(=O)Oc1ccc(N(C(C)=O)S(=O)(=O)c2cccs2)cc1,2.49%
8,CCOc1ccc2[nH]c(=O)c(CN(Cc3ccc(C)cc3)C(=O)N3CCCC3)cc2c1,0.145%
9,CC1=C(C(N)=O)C(c2ccc(C)o2)C(C(N)=O)=C(C)N1,13%
10,O=C1c2ccccc2C(=O)N1CCCc1cn(C[C@H]2CC[C@@H]([C@@H]3CC[C@H](Cn4cc(CCCN5C(=O)c6ccccc6C5=O)nn4)O3)O2)nn1,-23.8%
11,O=C(Nc1cc(=O)[nH]c2nc(-c3ccccc3)nn12)c1ccccc1Cl,15.3%
12,CCOc1cc(C(=O)Nc2ccc(N3CCN(S(C)(=O)=O)CC3)cc2)cc(OCC)c1OCC,3.94%
13,COc1cccc(=O)c2c(C)oc(C)c12,3.11%
14,COc1cc(CC(NC(C)=O)C(=O)NC2CCN(C(=O)Nc3ccc(C)cc3)CC2)cc(OC)c1 (centres unmarked),-5.62%
15,Cc1cccc(N2CCN(C(=O)C3CCN(S(=O)(=O)N4CCOCC4)CC3)CC2)c1C,-44.3%
16,COc1cc(C(=O)Nc2ccc(S(=O)(=O)Nc3onc(C)c3C)cc2)cc(OC)c1OC,4.29%
17,COc1cccc(NC(=O)CN(C)C(C)C(=O)Nc2cc([N+](=O)[O-])ccc2Cl)c1 (centres unmarked),-19.5%
18,COc1ccc(OC)c(NC(=O)CCN2CCC(C)CC2)c1.Cl,8.36%
19,CC(C)c1ccc(CNC(=O)CSCC(=O)Nc2ccc3ccccc3c2)cc1,7.23%
20,Cc1ccc(C(=O)NC(C)c2ccc(-n3ccnc3)cc2)cc1S(=O)(=O)N1CCOCC1 (centres unmarked),-65.1%
21,COC(=O)C(NC(C)=O)(Nc1nc2c(s1)CCCC2)C(F)(F)F (centres unmarked),-4.29%
22,O=C(CNC(c1ccccc1)c1ccccc1)Nc1ccccc1F,15.6%

row,SMILES,"hERG current change (%, negative = inhibition) at 10uM"
1,Cc1ccc(-n2ncc(C(=O)N3CCN(C(=O)c4ccco4)CC3)c2-n2cccc2)cc1,-27.4%
2,CC(C)Sc1nc2ccc(N3C(=O)C4CCCCC4C3=O)cc2s1 (centres unmarked),-3.65%
3,COCCNC(=O)CCCn1c(=O)c2ccccc2n(Cc2cccc([N+](=O)[O-])c2)c1=O,-26.3%
4,CCCNC(=S)Nc1ccc2nc(-c3ccccn3)c(-c3ccccn3)nc2c1,-7.39%
5,COCCCNc1nc2ccccc2nc1NS(=O)(=O)c1ccc(OC)cc1,17.2%
6,Cc1ccc(-c2csc(NC(=O)c3cccs3)n2)cc1,17.5%
7,C=C(C)c1cccc(C(C)(C)NC(=O)Nc2ccc(C)cn2)c1,-25.7%
8,CCOc1ccccc1OCC(=O)OCC(=O)NNC(=O)c1ccc([N+](=O)[O-])cc1,-11.4%
9,O=C(OCCN=C1NS(=O)(=O)c2ccccc21)c1ccco1,9.33%
10,CC(C)OC(=S)N/C(=N\S(=O)(=O)c1ccccc1)c1ccccc1,5.43%
11,Cc1cc(C)nc(NS(=O)(=O)c2ccc(NC(=O)CCC3COc4ccccc4O3)cc2)n1 (centres unmarked),-5.19%
12,CC(=NCc1ccco1)C1=C(O)c2ccccc2C1=O,-14%
13,COc1ccc(/C=N/NC(=O)c2ccn[nH]2)cc1COc1ccc(Cl)cc1Cl,14.6%
14,CCOC(=O)c1c(C)[nH]c(C(=O)OCC(=O)Nc2cc(C)ccc2OC)c1C,-0.258%
15,CC(NC(=O)c1ccc(OC2CCN(Cc3ccccn3)CC2)cc1)c1ccccc1 (centres unmarked),-20.3%
16,CC(C)Cc1nnc(NC(=O)CCC(=O)N2CCN(c3ccc(Cl)cc3)CC2)s1,-3.51%
17,O=C(CS(=O)(=O)c1ccc(Cl)cc1)NCCS(=O)(=O)c1ccc(Cl)cc1,-40.5%
18,O=C(CS(=O)(=O)c1ccccc1)Nc1ccc(Cl)cn1,-1.22%
19,O=C(CCCCCn1c(=S)[nH]c2ccsc2c1=O)NC1CCCCC1,4.4%
20,COc1ccc(CNC(=O)/C=C/c2ccc(S(=O)(=O)N3CCOCC3)cc2)cc1,-8.55%

# Source: publication PMC4336329 (PLoS ONE, 2015)
